PubChem BioAssay AID686978 (National Center for Advancing Translational Sciences (NCATS), 2013)
“And” between values parts separate entries of the source, which are not always exact repeats. Equal entries are not always repeated. In all, about 420,000 compounds went through this assay and about 64,000 (15%) were called active. The inconclusive results got no clear call from the source; some entries with a clear call stand among them for comparison. The call rests on the fitted dose curve; in most records, active means well fitted inhibition curve with a large enough effect; inconclusive means small, poorly fitted or top-dose-only effect; inactive means flat fitted curve, though single readings scatter. A potency beside an inconclusive call is a rough fit, not a confirmed value.

assay: qHTS for Inhibitors of human tyrosyl-DNA phosphodiesterase 1 (TDP1): qHTS in cells in absence of CPT; details: DT40 Tdp1-/- hTDP1 cells, no CPT, ATP luminescence, 48 h; activity change, negative = growth inhibition: at 46.2 µM (top of the series); further: nearly all actives have a fitted effect of over 55% in size
Outline: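 A cellular qHTS used chicken DT40 cells lacking endogenous Tdp1 but carrying stably transfected human TDP1. Compounds were applied without camptothecin, and cell growth kinetics were judged by ATP-dependent luminescence after ≥48 hr.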
On the % scale 0 is the no-effect control and ±100 the full control effect; potency means the concentration at half of the fitted maximal effect; tags describe the fitted curve by direction and shape.

Row | Compound | Potency | activity change, negative = growth inhibition
1 | C=CCn1c(SCC(=O)N(CC)C2CCS(=O)(=O)C2)nc2sc3c(c2c1=O)CCC3 (centres undefined) | inconclusive: 23.1 µM [inhibitor, single point] | 
2 | COC(=O)CCC(=O)Nc1sc2c(c1C#N)CCCC2 | active: 4.61 µM | 
3 | O=C(NCCc1ccccn1)c1cnn(-c2ncc3c(n2)-c2ccccc2CC3)c1C1CC1 | inconclusive: 20.6 µM [inhibitor, partial curve] | 
4 | O=C(Nc1ccc(F)cc1)C(c1cc2ccccc2o1)N1CCN(C(=O)c2ccco2)CC1 (centres undefined) | inconclusive: 29.1 µM [inhibitor, single point] | 
5 | NC(=O)CC(NC(=O)c1cccc(Br)c1)c1ccc(N2CCC(Br)CC2)c([N+](=O)[O-])c1 (centres undefined) | inconclusive: 29.1 µM [inhibitor, single point] | 
6 | C[N+](C)(C)C/C=C1/COCO1 | inconclusive: 25.9 µM [inhibitor, single point] | 
7 | Cc1ccc(-c2csc(NC(=O)C3=COCCO3)n2)cc1 | inconclusive: 29.1 µM [inhibitor, single point] | 
8 | CC(C)c1ccc(-c2cc(C(=O)N3CCOCC3)c3cc(Br)ccc3n2)cc1 | inconclusive: 23.1 µM [inhibitor, single point] | 
9 | CCc1ccccc1NC(=O)CSc1nc2ncccc2o1 | inactive | 
10 | O=C(CC(c1cccs1)N1Cc2ccccc2C1=O)Nc1ccc(F)cc1F (centres undefined) | active: 16.4 µM | 
11 | Cc1noc(C)c1S(=O)(=O)N(C)C[C@H]1OCCCC[C@@H](C)Oc2ccc(NS(=O)(=O)c3cn(C)cn3)cc2C(=O)N([C@H](C)CO)C[C@@H]1C | inactive | 
12 | COc1cc2c(cc1OC)CN(C(=O)c1cc(C3CC3)nn1-c1ccccc1)CC2 | inconclusive: 20.6 µM [inhibitor, partial curve, poor fit] | 
13 | CCOc1ccc(CCN2C(=O)C(=O)N([C@@H](CC(C)C)CN3CCC[C@H]3CN3C(=O)C(=O)NC[C@@H]3CC(C)C)C[C@@H]2Cc2ccccc2)cc1 | inconclusive: 20.6 µM [inhibitor, single point] | 
14 | CC(C)(C)c1nc(NCCN2CCOCC2)c2nnn(Cc3ccccc3Cl)c2n1 | active: 10 µM | 
15 | O=C(COC(=O)/C=C/c1ccc2c(c1)OCO2)NCc1ccc(F)cc1 | active: 20.6 µM | 
16 | CCOC(=O)C1=C(C)N(c2ccc(C)cc2)C(=O)/C1=C\c1ccc(O)c(OC)c1 | active: 20.6 µM | 
17 | Cc1cccc(CC(=O)NC2CC(=O)N(c3ccccc3)C2)c1 (centres undefined) | inactive | 
18 | CC(=O)NCCNc1ncnc2ccc(-c3ccccc3Cl)cc12 |  | inconclusive: -30.9% [inhibitor]
19 | N=C1C(c2ccccc2)=C(O)CN1c1cccc(S(=O)(=O)N2CCOCC2)c1 | inactive | 
20 | O=S1(=O)N=C(N(CCO)/N=C/c2ccccc2F)c2ccccc21 | active: 0.92 µM | 
21 | CCOC(=O)C1=CN(Cc2ccco2)S(=O)(=O)NC1CC (centres undefined) | inactive | 
22 | COc1ccc2c(=O)c(-c3ccccc3)coc2c1 | inactive and inconclusive: 23.1 µM [inhibitor, single point] | 
23 | Cc1cccc(C(=O)N2CCC(N3CCN(Cc4ccc(F)cc4)C(=O)C3=O)CC2)c1 | inactive | 

Row | Compound | Potency | activity change, negative = growth inhibition
24 | S=C(NCc1ccccc1)NN1CCOCC1 | inactive | 
25 | Cc1cc2c(cc3c(SCc4cccc(F)c4)nnc(C)n32)o1 | inconclusive: 16.4 µM [inhibitor, single point] | 
26 | O=C(c1cccc(C(F)(F)F)c1)N1CCc2c([nH]c3ccccc23)C1C(F)(F)F (centres undefined) | inconclusive: 29.1 µM [inhibitor, single point] | 
27 | CC(C)c1ccc(C2c3c(oc4ccc(Cl)cc4c3=O)C(=O)N2CCCN2CCOCC2)cc1 (centres undefined) | inconclusive: 18.4 µM [inhibitor, single point] | 
28 | Cc1ccc(C2=CC(c3ccc(Cl)cc3)n3nc(-c4ccc(C)cc4)nc3N2)cc1 (centres undefined) | inconclusive: 36.6 µM [inhibitor, partial curve, poor fit] | 
29 | CC(=O)c1ccc(NC(=O)CCCN2C(=O)/C(=C/C(C)=C/c3ccccc3)SC2=S)cc1 | active: 23.1 µM | 
30 | O=C(COC(=O)Cc1ccccc1[N+](=O)[O-])NCC1CCCCC1 | inactive | 
31 | COc1cc(NC(=O)CN2C(=O)C(c3ccc(Cl)cc3)=NC23CCCCC3)cc(OC)c1 | inconclusive: 23.1 µM [inhibitor, single point] | 
32 | COc1ccc(C(=O)NCc2c(C)nn(Cc3ccccc3)c2C)cc1S(=O)(=O)N1CCOCC1 | inconclusive: 29.1 µM [inhibitor, single point] | 
33 | C[C@H]1CC[C@]2(O[C@H](CCO)C[C@H](O)[C@H]2O)O1 | inactive | 
34 | Cc1cc(/C=C2\SC(=O)NC2=O)c(C)n1-c1ccc(N2CCOCC2)cc1 | inconclusive: 20.6 µM [inhibitor, partial curve] | 
35 | O=[n+]1cc(-c2ccc(Br)cc2)n([O-])c2c1CCC2 | inconclusive: 16.4 µM [inhibitor, single point] | 
36 | O=[N+]([O-])c1ccc(C2CC(c3ccccc3)=Nc3ccccc3S2)cc1 (centres undefined) | active: 20.6 µM | 
37 | CCC(C)N(C(=O)CSc1nc(C)nc2ccccc12)C1CCS(=O)(=O)C1 (centres undefined) | inconclusive: 29.1 µM [inhibitor, single point] | 
38 | NS(=O)(=O)c1ccc(CCNC(=O)C2CCN(S(=O)(=O)c3cnc[nH]3)CC2)cc1 | inactive | 
39 | COCCN(C(=O)COc1ccc(Cl)cc1)c1nnc(-c2cccnc2)s1 | inactive | 
40 | CCCCCc1ccc(OCCCC[n+]2cccc(C)c2)c(CCCCC)c1 | active: 1.16 µM | 
41 | COC(=O)c1ccc(Cl)cc1NC(=O)NC(C)c1c(-n2cccc2)sc(C)c1C (centres undefined) | inconclusive: 29.1 µM [inhibitor, partial curve, poor fit] | 
42 | Cc1ccccc1CSCCNC(=O)C1CCN(S(=O)(=O)Cc2ccccc2)CC1 | inactive | 
43 | Cc1ccc(Cn2cnc3c(cnn3C(C)(C)C)c2=O)cc1 | active: 13 µM | 
44 | COc1ccc(Oc2ncc3nc(-c4ccc(Cl)cc4)c(=O)n(CCC#N)c3n2)cc1 | inconclusive: 25.9 µM [inhibitor, single point] | 
45 | COC(=O)c1ccc(NC(=O)CN2CCN(CC#N)CC2)cc1 | inactive | 
46 | COc1cc(C(=O)NNC(=O)CCOc2ccccc2C)cc(OC)c1OC | inactive | 

Row | Compound | Potency | activity change, negative = growth inhibition
47 | CN(C)CCCNC(=O)c1cc2sc3ccccc3c2s1 | inconclusive: 29.1 µM [inhibitor, single point] | 
48 | CCOC(=O)c1c(NC(=O)Nc2ccc(F)cc2)sc(C(=O)N(C)C)c1C | inconclusive: 29.1 µM [inhibitor, single point] | 
49 | O=S(=O)(/C=C/c1ccccc1)N1CCN(c2nc(-c3ccccc3)nc3ccccc23)CC1 | inconclusive: 14.6 µM [inhibitor, single point] | 
50 | Cc1ccn(C(=O)c2ccc(NC(=O)C3CC3)cc2)n1 | inconclusive: 32.6 µM [inhibitor, single point] | 
51 | Cc1ccccc1Cn1nnc2sc3c(c2c1=O)CCCC3 | inconclusive: 20.6 µM [inhibitor, single point] | 
52 | Cc1ccc(C)n1NC(=O)c1ccc(Cl)cc1Cl | inconclusive: 0.326 µM [inhibitor, full curve, poor fit] | 
53 | COC(=O)CCN(Cc1cc(OC)ccc1OC)S(=O)(=O)c1ccccc1Br | inconclusive: 29.1 µM [inhibitor, single point] | 
54 | CN(C)c1ncc(S(=O)(=O)c2ccc(Cl)cc2)c(-c2ccc(Cl)cc2Cl)n1 | inconclusive: 8.2 µM [inhibitor, partial curve] | 
55 | O=C(COC(=O)CCC1CCCC1)Nc1ccc(F)cc1 | inactive | 
56 | CC(=O)Nc1cccc(-c2ccnc3c2CC(C)(C(=O)NCCc2ccccc2)O3)c1 (centres undefined) | active: 4.61 µM | 
57 | O=C(c1cccc(F)c1)N1CCC2(CCCN(c3cccc(-c4ccccc4)c3)C2)CC1 | inconclusive: 20.6 µM [inhibitor, single point] | 
58 | CCN(CC(=O)Nc1ccc2c(c1)CCC2)Cc1nc2ccccc2c(=O)[nH]1 | active: 8.2 µM | 
59 | O=C(O)c1nnn(-c2cc(C(F)(F)F)cc(C(F)(F)F)c2)c1-c1ccccc1 | inactive | 
60 | COc1ccc(C(=O)N/N=C2\CCS(=O)(=O)c3ccc(F)cc32)cc1OC | inconclusive: 29.1 µM [inhibitor, single point] | 
61 | COc1ccc(-c2nnn(CC(=O)N(Cc3ccc(F)cc3)C(C(=O)NC3CCCC3)c3ccc(F)cc3)n2)cc1 (centres undefined) | inconclusive: 14.6 µM [inhibitor, partial curve, poor fit] | 
62 | C=C1C[C@@H]2C[C@@H]2CN(S(=O)(=O)c2ccc(C)cc2)[C@@H]1COCc1ccccc1 | active: 8.2 µM | 
63 | O=C(O)c1nccnc1C(=O)Nc1ccc(Cl)cn1 | inactive | 
64 | Cc1cc(C)nc(/N=C2\NC(=O)CC(C(=O)O)N2c2ccc(C)c(C)c2)n1 (centres undefined) | inconclusive: 29.1 µM [inhibitor, single point] | 
65 | O=C(O)c1ccc(N2C(=O)C3C4c5ccccc5C(Br)(c5ccccc54)C3C2=O)cc1 (centres undefined) | inactive | 
66 | COc1cc(CN2CCC(C(=O)NC3CCCC3)CC2)cc(OC)c1O | inconclusive: 23.1 µM [inhibitor, single point] | 
67 | COc1ccc(OC)c(N(CC(=O)NCCc2ccc(OC)c(OC)c2)S(=O)(=O)c2ccccc2)c1 | inconclusive: 20.6 µM [inhibitor, single point] | 
68 | CC(O)(c1cccc(F)c1)c1nc(-c2cccc(C#N)c2)cs1 (centres undefined) | inconclusive: 29.1 µM [inhibitor, single point] | 
69 | CCOC(=O)N1CCN(C(=O)C[C@@H]2C[C@@]3(C(=O)OCC)CCCC=C3N(Cc3ccc4c(c3)OCO4)C2=O)CC1 | inconclusive: 29.1 µM [inhibitor, single point] | 
